Source: PubChem BioAssay AID1645887 (National Center for Advancing Translational Sciences (NCATS), 2021)
Values joined by “and” are separate entries in the source; they are usually repeats but may differ in a detail not shown here. Equal values may be shown once. Among all 16,000 compounds or so, about 40 (0.2%) were called active. Another 1% or so got no clear call; they are omitted. Calls come from the whole dose curve; as a rule, active = well fitted activation curve with a large enough effect; inconclusive = small, poorly fitted or top-dose-only effect, or another doubt; inactive = no such curve, though single readings can be large or run the other way. This is one part of the list.

What follows are molecules tested against Rap guanine nucleotide exchange factor 4 (Homo sapiens) (UniProt Q8WZA2) (assay: Validation qHTS for agonist of cAMP-regulated guanine nucleotide exchange factor 4 (EPAC2)). Settings: EPAC2 Rap1B BODIPY-GDP exchange, fluorescence; activation: hits give high values.
Chain of UniProt Q8WZA2 (Q8WZA2 whole entry, looked up): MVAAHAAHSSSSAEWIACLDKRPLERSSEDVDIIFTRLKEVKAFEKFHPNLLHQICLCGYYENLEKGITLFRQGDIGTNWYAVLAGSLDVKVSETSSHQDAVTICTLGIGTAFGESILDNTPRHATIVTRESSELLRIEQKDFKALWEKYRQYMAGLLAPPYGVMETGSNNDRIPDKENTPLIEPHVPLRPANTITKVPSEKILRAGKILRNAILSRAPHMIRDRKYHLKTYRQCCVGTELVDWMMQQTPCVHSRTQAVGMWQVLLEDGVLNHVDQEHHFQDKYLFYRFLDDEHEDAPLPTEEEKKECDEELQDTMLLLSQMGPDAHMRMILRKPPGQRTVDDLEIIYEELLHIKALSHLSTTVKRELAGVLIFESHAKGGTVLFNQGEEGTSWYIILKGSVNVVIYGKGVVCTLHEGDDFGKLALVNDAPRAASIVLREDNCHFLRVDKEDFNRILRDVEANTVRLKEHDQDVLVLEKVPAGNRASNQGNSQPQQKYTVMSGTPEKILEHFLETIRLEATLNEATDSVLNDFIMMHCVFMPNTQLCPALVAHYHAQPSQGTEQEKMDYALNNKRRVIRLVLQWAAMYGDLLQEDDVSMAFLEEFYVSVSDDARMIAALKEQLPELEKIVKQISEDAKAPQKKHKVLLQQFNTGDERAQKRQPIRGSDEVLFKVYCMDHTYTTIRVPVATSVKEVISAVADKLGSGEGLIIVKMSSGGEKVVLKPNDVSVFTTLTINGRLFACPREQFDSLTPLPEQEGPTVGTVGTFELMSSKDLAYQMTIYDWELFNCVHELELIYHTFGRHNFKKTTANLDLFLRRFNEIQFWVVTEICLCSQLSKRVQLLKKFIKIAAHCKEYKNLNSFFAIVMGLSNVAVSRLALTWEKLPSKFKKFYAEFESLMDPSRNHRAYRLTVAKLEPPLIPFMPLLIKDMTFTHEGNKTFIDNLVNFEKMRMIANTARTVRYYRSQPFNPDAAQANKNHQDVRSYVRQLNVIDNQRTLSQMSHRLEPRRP
How it was run: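 Signal normalized against 6.5 mM cAMP as agonist control. Mix of EPAC2 (100 nM), RAP1B-BODIPY-GDP (250 nM) and GDP (50 uM) was read kinetically at 480/540 nm, every 5 min over 30 min, after 5 min room-temperature incubation with compound.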
% is set by controls: 0 for no effect and ±100 for the full control effect.
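Note: exchange makes BODIPY-GDP fluorescence drop when released from Rap1B; series mostly up to about 150 µM.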

activation, inactive:
COc1cc2c(c(OC)c1OC)-c1ccc(OC)c(=O)cc1[C@H](NC(C)=O)CC2 3.29%
CC(=O)O[C@@]1(C(C)=O)CCC2C3C=C(Cl)C4=CC(=O)C5CC5[C@@]4(C)C3CC[C@]21C (some centres undefined) -8.29%
COc1cccc(-c2nccc(N(C)Cc3ccco3)n2)c1 -1.37%
CC(=O)Nc1c(I)c(C(=O)N[C@H]2C(O)O[C@H](CO)[C@@H](O)[C@@H]2O)c(I)c(N(C)C(C)=O)c1I (some centres undefined) 4.11%
COc1cccc(Cn2c(=O)c(-c3cccs3)nc3cnc(OCc4ccccc4)nc32)c1 2.14%
COCCn1c(=O)c(-c2cccs2)nc2cncnc21 3.93%
COc1ccccc1-c1nccc(NCc2cnc(C)cn2)n1 -18.7%
N#CC[C@H](Cc1ccccc1)N1CCN(Cc2ccccc2)CCC1=O -22.6%
COc1ccc(-c2coc3c(OC)c(OC)cc(OC)c3c2=O)cc1 -31.2%
CCCCCCOc1ccccc1C(N)=O -18.4%
COC(=O)C1CCCCN1Cc1ccc2c(c1)CN(C(=O)c1cc(C)nc3cc(F)ccc13)CCO2 (centres undefined) -8.36%
C[C@](Cc1ccc(O)c(O)c1)(NN)C(=O)O -12.8%
c1ccc2c(c1)CC(N1CCN(c3cccc4c3OCCO4)CC1)C2 -32.6%
CS(=O)(=O)N1CCC2(CC1)CN(C(=O)Nc1cccc(C#N)c1)C2 -10.8%
COc1ccc(CNc2nc(-c3cccc(C#N)c3)nc3ccccc23)c(OC)c1 17.8%
Cc1sc2ccccc2[n+]1Cc1ccccc1 -28%
CCOC(=O)CNS(=O)(=O)Cc1ccccc1 -1.01%
COc1ccc(Oc2ncc3nc(C)c(=O)n(CCC#N)c3n2)cc1 -5.95%
O=C(c1ccncc1)N1CCC2(CCCN(c3ccc(-c4ccccc4)cc3)C2)CC1 -3.07%
CC1=C(C(=O)OCc2ccc3nsnc3c2)N2C(=O)[C@@H](NC(=O)OCc3ccc4nsnc4c3)[C@H]2SC1 -25.1%
COc1ccc(CN2CCOc3c(cc(-c4ccc(OC)nn4)cc3OC)C2)c(O)c1 -11.8%
CC(C)CN1CC2(CCN(C(=O)c3cnccn3)CC2)C1 -2.22%
O=C(O)C1=C(CSc2nnnn2CS(=O)(=O)O)CS[C@@H]2[C@H](NC(=O)[C@H](O)c3ccccc3)C(=O)N12 -4.27%
N#CCCn1c(=O)cnc2cnc(OCc3ccccc3)nc21 1.52%
Nc1ccn(C2OC(CO)C(O)C2O)c(=O)n1 (centres undefined) 5.3% and -9.82%
Cc1ccccc1-c1cncnc1NCc1cccnc1 -5.18%
COc1ccc(OC)c2c(/C=C/c3c[nH]c4ccccc34)ccnc12 -30.1%
Cc1ccc(C(=O)NCCc2nnc3n2CCN(Cc2ccc4ccccc4c2)CC3)c(C)c1 1.28%
COc1cc(N)c(NC(=O)/C=C/c2nc3cc(OC)c(OC)cc3[nH]2)cc1OC -22.6%
C=C[C@]1(C)C[C@@H](OC(=O)CSC(C)(C)CNC(=O)[C@H](N)C(C)C)[C@]2(C)[C@H](C)CC[C@]3(CCC(=O)[C@H]32)[C@@H](C)[C@@H]1O 6.92%
CN(N=O)C(=O)N[C@H]1C(O)C(O)C(CO)O[C@@H]1O (some centres undefined) -9.5%
COC(=O)N1CCC2(CCN(Cc3cc(C(F)(F)F)cc(C(F)(F)F)c3)CC2)CC1 -29.3%
Cc1nn(-c2ccc(F)cc2)c(C)c1CNC(=O)c1ccc(-n2cc(NC(=O)c3ccoc3)cn2)cc1 12.1%
COc1cccc(CN2CCC(c3nnc(SCC4CCCO4)n3C)CC2)c1O (centres undefined) -17.3%
CCc1cc(C(=O)NCC2Cc3cccc(-c4ccc(C(=O)OC)cn4)c3O2)no1 (centres undefined) -14.7%
CCC1CN(CCNC(=O)c2cc3ccccc3oc2=O)Cc2cc(OC)ccc2O1 (centres undefined) 1.42%
CC1CCC2[C@](C)(CO)C(O)CC[C@]2(C)C12CCC(CO)(CCO)O2 (some centres undefined) -9.66%
O=c1c(-c2cccs2)nc2cnc(N3CCNCC3)nc2n1C1CC1 5.82%
CNCC(O)c1ccc(O)c(O)c1 (centres undefined) -8.02% and -9.91%
COc1cc2c(C(=O)c3ccccc3)c3c4c(cc(OC)c(OC)c4c2cc1OC)CCN3C -19.6%
CC(CNC1CCCCC1)OC(=O)c1ccccc1 (centres undefined) -18.8%
CC(C)C[C@@H](CO)N1CCN(C)CCC1=O -16.4%
O=C(O)c1cccc(-c2noc(-c3ccccc3F)n2)c1 10.2%
Nc1ccc(S(=O)(=O)Nc2nccs2)cc1 -0.78% and -23.6%
O=C1c2c(O)cccc2[C@H]([C@@H]2O[C@H](CO)[C@@H](O)[C@H](O)[C@H]2O)c2cc(CO)cc(O)c21 -11.1%
COc1cc2ccc(=O)oc2c(O)c1O -8% and -4.49%
O=C(c1ccco1)N1CCC2(CC1)CN(Cc1cc(C(F)(F)F)cc(C(F)(F)F)c1)C2 -10.8%
COCCn1c(=O)c(-c2ccccc2)nc2cnc(OCc3ccccc3)nc21 -5.55%
Cc1ccc(-c2cc(C(F)(F)F)nn2-c2ccc(S(N)(=O)=O)cc2)cc1 -24.8% and 11.9%
O=C1c2ccccc2C(=O)c2c(O)c(O)cc(O)c21 19.2% and 2.97%
COC1C=CC23c4cc5c(cc4CN(CC2O)C3C1)OCO5 (centres undefined) -11%
CCCOC(=O)c1ccc(O)cc1 -15.6% and -8.79%
COCCn1c(=O)c(-c2cn(C)c3ccccc23)nc2cnc(Oc3cccc(Cl)c3)nc21 -21.8%
COc1ccc(SC[C@H](Cc2ccccc2)N2CC[C@@H](C(C)(C)C)CCC2=O)cc1 -10.5%
OC(C#CCN1CCCC1)(c1ccccc1)c1ccccc1 -7.04%
O=C(NCCCN1CCCCCC1)[C@@H](c1ccccc1)C1CCCCC1 -14%
Cc1ccccc1-c1nc(N(C)C)c2ccccc2n1 -10.8%
C=CCn1c(=O)c2c(nc(-c3ccccc3)n2C)n(C)c1=O -2.28%
CCNc1ncc2nc(-c3ccc(F)cc3)c(=O)n(C)c2n1 -14%
Cc1cnc(CNc2ncnc3ccc(-c4ccc(N(C)C)cc4)cc23)cn1 -0.839%
CS(=O)(=O)Nc1cccc(-c2cncnc2NCc2cccnc2)c1 -23.3%
Clc1ccccc1-c1nccc(NCCN2CCOCC2)n1 -17%
CCN(CC)CCC(=O)N1c2ccccc2Sc2ccc(Cl)cc21 -6.87%
COc1ccc(-c2c(-c3ccc4c(c3)OCO4)noc2-c2ccsc2)cn1 -20.5%
CCC(C)(C)N=C(NC#N)Nc1cccnc1 -9.64%
CCOC(=O)C1=C(C)NC(=S)NC1c1cccc(O)c1 (centres undefined) -28.6%
COC(=O)[C@@H]1C[C@H](NC(=O)c2ccccn2)CN1Cc1cccc2ccccc12 -15.5%
N#Cc1c(N(CC(=O)O)CC(=O)O)sc(C(=O)O)c1CC(=O)O -14.7%
CC[C@H]1OC(=O)[C@H](C)[C@@H](O[C@H]2C[C@@](C)(OC)[C@@H](O)[C@H](C)O2)[C@H](C)[C@@H](O[C@@H]2O[C@H](C)C[C@H](N(C)C)[C@H]2O)[C@](C)(O)C[C@@H](C)CN(C)[C@H](C)[C@@H](O)[C@]1(C)O -0.675%
COCCn1c(=O)c(-c2cn(C)c3ccccc23)nc2cnc(Oc3ccc(OC)cc3)nc21 -0.57%
Cc1csc(SCC(=O)NCC2Cc3cc(-c4cncnc4)ccc3O2)n1 (centres undefined) 4.64%
CN(C)C(=O)CCSC(SCCC(=O)O)c1cccc(/C=C/c2ccc3ccc(Cl)cc3n2)c1 (centres undefined) -8.73%
CC1CC(=O)NN=C1c1ccc(NCC(C)(C)NCC(O)COc2cc(Cl)ccc2C#N)cc1 (centres undefined) -1.39%
CC1(C)S[C@@H]2[C@H](NC(=O)C(C(=O)O)c3ccsc3)C(=O)N2[C@H]1C(=O)O (some centres undefined) -3.91%
COCCNC(=O)COc1ccc(OCCNC[C@H](O)COc2ccccc2)cc1 1.58%
CCOC(=O)/C=C/c1ccc2c(c1)S(=O)(=O)N(c1cccc(OC)c1)[C@H]2CC(=O)OCC -11.1%
COc1ccc(O)c(CN2CCC3(CCC(CNC(=O)C4CCCO4)O3)CC2)c1 (centres undefined) -10.5%
CC(C)NC(=O)N1CC[C@@]2(CCCN(C(=O)c3cccc(F)c3)C2)C1 4.36%
C[C@@H]1C[C@H]2C3C[C@H](F)C4=CC(=O)C=CC4(C)[C@@]3(F)[C@@H](O)CC2(C)[C@@]1(O)C(=O)COC(=O)C(C)(C)C (some centres undefined) -10.2%
Cc1ccc(CNc2ncnc3sc(C(=O)N4CCC(N5CCCC(O)C5)CC4)c(C)c23)o1 (centres undefined) 14.7%
Cc1ccccc1-c1nccc(-n2ccnc2)n1 -7.47%
CCC(O)CNC(=O)c1cnn(-c2ncc3c(n2)-c2ccccc2CCC3)c1C1CC1 (centres undefined) -1.13%
CN[C@H]1CC[C@@H](c2ccc(Cl)c(Cl)c2)c2ccccc21 1.66% and -85.2%
CCOC(=O)C(Cc1ccc(O)cc1)NC(C)=O (centres undefined) -11%
